# Measured values from the supplement of paper PMC3334620.
# In all, about 33,000 sequences were measured (“E-score (-0.5 to 0.5)”: median about -0.036, highest 2% from about 0.37 on). Some of the results follow.
# Molecular target: T1, Yer064c (UniProt P40041)
# T1 sequence: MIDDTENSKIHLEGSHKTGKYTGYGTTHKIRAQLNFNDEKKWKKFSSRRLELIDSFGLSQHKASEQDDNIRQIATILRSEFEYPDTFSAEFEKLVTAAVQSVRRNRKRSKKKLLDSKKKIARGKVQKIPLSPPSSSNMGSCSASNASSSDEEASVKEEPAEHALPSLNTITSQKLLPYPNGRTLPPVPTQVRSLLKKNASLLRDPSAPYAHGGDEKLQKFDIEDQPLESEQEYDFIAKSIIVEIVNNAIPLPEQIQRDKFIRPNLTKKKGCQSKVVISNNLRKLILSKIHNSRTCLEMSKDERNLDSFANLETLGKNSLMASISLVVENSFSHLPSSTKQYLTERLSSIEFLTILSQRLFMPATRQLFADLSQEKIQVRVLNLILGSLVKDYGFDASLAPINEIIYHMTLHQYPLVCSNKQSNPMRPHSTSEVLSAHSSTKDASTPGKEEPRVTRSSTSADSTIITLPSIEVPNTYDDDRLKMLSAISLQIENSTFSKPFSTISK
# Experiment: PBM E-score (8-mer binding enrichment) (E-score (-0.5 to 0.5)); higher = stronger / more preferred TF binding; most listed sequences are background and not binding sites
# Details: protein concentration: 200 nM; construct: GST-full length
# In short: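 The E-score, a modified Wilcoxon-Mann-Whitney statistic, was computed by the Universal PBM Analysis Suite for every ungapped eight-base word pooled with its reverse complement. Scans behind it were normalised with masliner after bound GST-tagged yeast transcription factors were detected with fluorescent anti-GST. The proteins, at about 100-200 nM, had been applied to universal all-10-mer Agilent arrays made double-stranded by primer extension.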
row,Sequence,PBM E-score
1,CCTTGAAA,-0.0724
2,ATGCGGTG,-0.114
3,ATAAGCAA,-0.0114
4,TGAGTACA,0.376
5,CCCTATGA,0.0506
6,CCATTGCG,-0.082
7,TCATTGGA,0.17
8,CTCATTAA,0.248
9,TGATGAAA,-0.0162
10,GCAGGAAA,-0.141
11,AATTAGTA,0.103
12,AGTCTCTA,0.222
13,CGAAGAAC,0.0391
14,CTCAGTTA,0.146
15,CCGGTAGC,-0.018
16,CTCTCTCC,-0.18
17,GTGCGAGA,0.103
18,CGGTCGAG,-0.0852
19,CTCCCTGC,0.0263
20,ATTGCACG,0.0596
21,GAGGACGA,0.0459
22,ACACCTCG,-0.135
23,CGCAATAA,-0.0755
24,CTTGCGGA,-0.0554
25,ATGTGTGC,0.00354

row,Sequence,PBM E-score
1,CATAACGA,-0.0272
2,TAGTGCAA,0.0408
3,ACGTAACA,-0.0715
4,ATCTAAGA,0.0947
5,ACGGCCGT,-0.281
6,AAGGGAAC,-0.2
7,GGACCGAA,-0.00554
8,ATTACAGG,0.181
9,ATGACAGA,-0.123
10,ACATATAA,0.108
11,AACTACGT,-0.108
12,GTTAGCCA,0.246
13,GCCGGCAC,-0.273
14,GGATGCAC,-0.235
15,AGTTGGTC,-0.0336
16,ATTCGAAA,-0.0231
17,GGGGCCAC,-0.173
18,CAACAGCG,-0.251
19,ACGCTCGG,-0.0254
20,AACGCCCT,-0.191
21,CGGAGGAG,-0.258
22,GAGGGACC,-0.296
23,CTTAAGTC,0.263
24,CAAATCGC,-0.0553
25,AAAACGAT,0.0576

row,Sequence,PBM E-score
1,CAAGGAGA,-0.00692
2,ATTATACA,0.108
3,AGCGACAT,-0.152
4,CCGAACCG,-0.134
5,ACCTTTAC,-0.0457
6,GGCGGTGA,0.119
7,GCAGTCGA,-0.0557
8,ACGGCTAA,0.00286
9,TATCAACA,0.154
10,CGCGCCCA,-0.0669
11,TAACTTAA,0.154
12,GAGACAAA,0.00213
13,CTTAATAA,0.136
14,AACAGTGC,-0.188
15,CACGAGTG,-0.125
16,GAAATAAC,0.0935
17,ACAGAAAG,0.107
18,AGAGTGTC,0.101
19,CTCAAAGA,0.139
20,CAGGTCCC,-0.355
21,AGCACATG,0.15
22,GTATAGTA,-0.12
23,ATATGCAT,-0.153
24,ATGAAGTA,-0.0139
25,AGTTCAGC,0.0111

row,Sequence,PBM E-score
1,AATCTCGT,0.154
2,CCTCACAA,0.038
3,TAAAAATA,0.205
4,GAATATAC,0.0606
5,GTCGTCAA,0.113
6,CGATTGGA,0.081
7,GGGCACTA,-0.21
8,ACTATAAA,0.175
9,ATATCTTG,0.143
10,AATCGACG,0.0737
11,AACAACAG,0.0614
12,CAAGGACA,-0.125
13,CATAGTCG,0.374
14,CTGGTAGC,-0.149
15,ACCGGACG,0.0393
16,ACCCTCCG,-0.227
17,CGTATTGA,0.139
18,AAGAATGC,0.0688
19,AGCGCTTG,-0.094
20,GTGGTAAC,-0.0786
21,ATATGGAA,0.00587
22,CGTCAAAA,-0.0525
23,ACGACTAC,0.415
24,GCTGTGAC,0.225
25,ATCCTCCA,-0.0903

row,Sequence,PBM E-score
1,TCTGTTCA,-0.0445
2,CTATAGGA,-0.0485
3,ACACCCCA,-0.0167
4,CAACAGTG,-0.139
5,CTACTACA,0.119
6,ACTATGAG,0.334
7,CGATTGAG,0.23
8,GAATTATA,-0.106
9,AATGTCGA,-0.145
10,GGAAGAAC,-0.0746
11,AGGAGTCA,0.486
12,CGACGACA,-0.15
13,ACCACGGC,0.043
14,CGTTCGAG,-0.0632
15,CAATTGTC,-0.142
16,ACACTACG,-0.141
17,ATCTCGGA,0.112
18,GACTTATA,0.387
19,GCATTGTA,-0.112
20,AGTGTCGA,-0.00525
21,TTCATAAA,0.0721
22,GGCGACGA,-0.226
23,CGGGCTTC,-0.257
24,ACAGGAAC,-0.107
25,AAATGCGA,0.12

row,Sequence,PBM E-score
1,ACGTGGCA,-0.315
2,CCGCCTCG,-0.168
3,ACCCACGG,-0.136
4,AGGTTGTA,-0.118
5,CACAGAAG,-0.0154
6,ACGATATA,-0.236
7,CCTCCAAC,-0.129
8,TCATCCGA,0.24
9,CCGACGCG,0.0049
10,TAGCAGCA,-0.0436
11,TAATGGGA,-0.109
12,ATATAAGC,-0.202
13,ACATGCTC,-0.115
14,CCGTGCCA,-0.202
15,GGCAAAAC,-0.126
16,CACGAAAC,-0.0727
17,GCAATACC,-0.127
18,GCGACCTA,-0.00094
19,AGGACAAC,-0.0457
20,GCTGGTGA,0.0962
21,CCTAAGCG,-0.128
22,GAAATTTA,0.256
23,ATAAAAGG,-0.0253
24,GGAAAGAC,0.0683
25,TCTATTAA,0.107

row,Sequence,PBM E-score
1,AGTCCAAG,0.194
2,CAGGCTGC,0.0146
3,GTATTAAA,0.0423
4,CCTAACAA,-0.0869
5,CATCGCTC,-0.0372
6,TACTTTGA,0.232
7,TAACGGTA,-0.0304
8,GGGTCCGA,-0.0665
9,CCCCTAAA,-0.281
10,CCTGATAA,0.0692
11,CCAGGAGA,-0.0506
12,CATGGAGA,0.137
13,GGATCGCA,-0.0924
14,ATGGAAGC,-0.207
15,CAGACATC,0.121
16,AATGCGGG,-0.00843
17,CCGATAAC,-0.0686
18,ACAGTGAT,0.128
19,ATTAGGAG,0.225
20,GGCGGTAA,0.00894
21,GTTTTGAA,0.17
22,AAGGTTCC,-0.153
